The source of these data is article doi:10.1101/2025.10.31.685692.

By UniProt entry, the sequences of proteins in these tests, tags left out.
UniProt Q9UMN6: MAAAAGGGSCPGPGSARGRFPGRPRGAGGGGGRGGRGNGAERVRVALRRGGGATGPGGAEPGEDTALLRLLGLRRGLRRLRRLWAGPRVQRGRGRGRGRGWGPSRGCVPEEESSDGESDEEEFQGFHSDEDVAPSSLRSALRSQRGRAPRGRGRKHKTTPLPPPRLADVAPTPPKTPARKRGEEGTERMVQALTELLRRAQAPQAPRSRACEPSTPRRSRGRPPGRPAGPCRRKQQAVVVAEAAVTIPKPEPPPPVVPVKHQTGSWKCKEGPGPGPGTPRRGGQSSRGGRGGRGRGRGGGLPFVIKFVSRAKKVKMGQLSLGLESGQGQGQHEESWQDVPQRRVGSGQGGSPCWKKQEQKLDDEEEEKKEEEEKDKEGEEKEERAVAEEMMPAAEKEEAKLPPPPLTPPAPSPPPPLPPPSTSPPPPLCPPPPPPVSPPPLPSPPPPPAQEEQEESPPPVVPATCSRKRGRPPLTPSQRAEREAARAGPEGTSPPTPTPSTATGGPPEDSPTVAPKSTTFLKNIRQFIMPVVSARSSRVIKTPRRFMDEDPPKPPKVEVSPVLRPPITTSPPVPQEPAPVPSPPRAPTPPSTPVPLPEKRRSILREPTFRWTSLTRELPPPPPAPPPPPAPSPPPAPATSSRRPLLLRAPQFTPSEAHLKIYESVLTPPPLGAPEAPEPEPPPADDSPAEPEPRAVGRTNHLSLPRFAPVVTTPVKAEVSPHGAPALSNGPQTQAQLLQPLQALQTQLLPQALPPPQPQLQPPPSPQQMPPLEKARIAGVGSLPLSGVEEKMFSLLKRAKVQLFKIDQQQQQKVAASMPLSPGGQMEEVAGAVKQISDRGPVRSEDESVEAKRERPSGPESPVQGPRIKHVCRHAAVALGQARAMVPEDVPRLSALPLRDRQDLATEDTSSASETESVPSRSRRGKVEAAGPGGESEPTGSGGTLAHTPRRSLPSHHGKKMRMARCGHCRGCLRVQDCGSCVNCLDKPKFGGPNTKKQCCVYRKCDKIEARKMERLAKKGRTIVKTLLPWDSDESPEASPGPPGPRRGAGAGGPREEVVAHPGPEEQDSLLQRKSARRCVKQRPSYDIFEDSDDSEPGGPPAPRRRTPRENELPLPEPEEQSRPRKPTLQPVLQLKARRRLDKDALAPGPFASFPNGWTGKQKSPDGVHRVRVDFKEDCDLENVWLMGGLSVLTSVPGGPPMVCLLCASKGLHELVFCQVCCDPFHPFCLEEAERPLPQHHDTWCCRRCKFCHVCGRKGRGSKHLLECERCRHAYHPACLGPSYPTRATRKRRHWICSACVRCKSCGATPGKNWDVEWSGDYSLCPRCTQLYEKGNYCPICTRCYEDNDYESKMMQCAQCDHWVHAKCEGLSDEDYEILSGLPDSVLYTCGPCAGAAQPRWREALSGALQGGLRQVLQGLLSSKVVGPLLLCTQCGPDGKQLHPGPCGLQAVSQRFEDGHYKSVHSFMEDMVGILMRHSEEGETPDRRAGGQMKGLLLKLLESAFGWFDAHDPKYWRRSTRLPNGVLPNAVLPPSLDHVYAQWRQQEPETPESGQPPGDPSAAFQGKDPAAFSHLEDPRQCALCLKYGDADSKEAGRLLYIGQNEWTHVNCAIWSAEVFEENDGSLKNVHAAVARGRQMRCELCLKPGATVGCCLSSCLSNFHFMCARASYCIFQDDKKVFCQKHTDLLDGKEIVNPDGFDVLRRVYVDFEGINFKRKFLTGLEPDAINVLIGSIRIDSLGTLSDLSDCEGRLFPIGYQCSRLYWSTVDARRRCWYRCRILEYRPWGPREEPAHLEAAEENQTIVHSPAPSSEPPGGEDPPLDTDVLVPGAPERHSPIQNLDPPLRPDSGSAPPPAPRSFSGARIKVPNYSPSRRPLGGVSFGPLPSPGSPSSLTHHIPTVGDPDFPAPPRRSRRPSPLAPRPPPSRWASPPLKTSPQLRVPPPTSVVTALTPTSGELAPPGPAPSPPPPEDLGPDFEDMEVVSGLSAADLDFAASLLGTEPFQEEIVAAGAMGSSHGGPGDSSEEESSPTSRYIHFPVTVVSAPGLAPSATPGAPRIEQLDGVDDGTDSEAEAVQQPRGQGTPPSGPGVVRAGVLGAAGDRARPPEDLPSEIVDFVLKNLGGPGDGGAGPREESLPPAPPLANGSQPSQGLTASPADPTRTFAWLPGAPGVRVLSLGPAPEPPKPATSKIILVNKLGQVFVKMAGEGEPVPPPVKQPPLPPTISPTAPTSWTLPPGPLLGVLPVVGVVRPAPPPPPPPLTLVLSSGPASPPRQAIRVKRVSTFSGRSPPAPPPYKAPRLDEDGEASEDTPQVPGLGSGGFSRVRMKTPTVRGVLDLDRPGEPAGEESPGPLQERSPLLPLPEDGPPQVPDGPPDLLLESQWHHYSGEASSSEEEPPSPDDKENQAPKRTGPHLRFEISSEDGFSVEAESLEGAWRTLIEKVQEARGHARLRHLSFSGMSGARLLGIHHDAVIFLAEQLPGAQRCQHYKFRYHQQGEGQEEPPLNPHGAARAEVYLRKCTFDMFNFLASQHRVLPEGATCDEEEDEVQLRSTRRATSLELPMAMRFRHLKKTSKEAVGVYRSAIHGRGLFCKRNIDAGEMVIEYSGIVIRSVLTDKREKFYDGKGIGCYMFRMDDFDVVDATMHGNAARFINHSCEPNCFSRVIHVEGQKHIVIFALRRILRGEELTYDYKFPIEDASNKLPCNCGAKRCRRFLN
UniProt P20226: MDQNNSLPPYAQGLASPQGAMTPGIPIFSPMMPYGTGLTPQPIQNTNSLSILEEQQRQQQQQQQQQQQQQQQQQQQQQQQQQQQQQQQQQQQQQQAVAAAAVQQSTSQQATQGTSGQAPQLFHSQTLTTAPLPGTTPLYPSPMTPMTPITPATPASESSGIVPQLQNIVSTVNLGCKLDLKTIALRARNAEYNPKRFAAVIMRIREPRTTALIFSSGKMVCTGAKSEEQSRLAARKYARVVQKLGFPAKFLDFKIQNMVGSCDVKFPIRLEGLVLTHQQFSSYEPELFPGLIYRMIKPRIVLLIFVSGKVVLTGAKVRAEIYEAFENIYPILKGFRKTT
UniProt Q15291: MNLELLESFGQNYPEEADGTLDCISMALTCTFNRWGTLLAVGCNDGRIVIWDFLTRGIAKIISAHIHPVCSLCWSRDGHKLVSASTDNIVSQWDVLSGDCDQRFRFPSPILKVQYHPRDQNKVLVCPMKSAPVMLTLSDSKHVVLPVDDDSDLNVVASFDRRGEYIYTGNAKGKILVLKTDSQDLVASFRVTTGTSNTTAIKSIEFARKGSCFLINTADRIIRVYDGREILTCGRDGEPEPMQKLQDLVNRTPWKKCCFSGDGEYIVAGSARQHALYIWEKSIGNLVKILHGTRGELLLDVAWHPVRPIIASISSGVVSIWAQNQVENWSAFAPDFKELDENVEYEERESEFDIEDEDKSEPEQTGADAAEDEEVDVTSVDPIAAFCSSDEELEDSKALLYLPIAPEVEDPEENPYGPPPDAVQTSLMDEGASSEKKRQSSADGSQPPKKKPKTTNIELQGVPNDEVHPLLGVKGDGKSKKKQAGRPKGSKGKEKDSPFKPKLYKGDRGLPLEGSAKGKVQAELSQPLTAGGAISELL

The target in assay [1] is T1, FLAG-HA-tagged ZMYND11 F291A+W294A (UniProt Q15326).
T1 sequence: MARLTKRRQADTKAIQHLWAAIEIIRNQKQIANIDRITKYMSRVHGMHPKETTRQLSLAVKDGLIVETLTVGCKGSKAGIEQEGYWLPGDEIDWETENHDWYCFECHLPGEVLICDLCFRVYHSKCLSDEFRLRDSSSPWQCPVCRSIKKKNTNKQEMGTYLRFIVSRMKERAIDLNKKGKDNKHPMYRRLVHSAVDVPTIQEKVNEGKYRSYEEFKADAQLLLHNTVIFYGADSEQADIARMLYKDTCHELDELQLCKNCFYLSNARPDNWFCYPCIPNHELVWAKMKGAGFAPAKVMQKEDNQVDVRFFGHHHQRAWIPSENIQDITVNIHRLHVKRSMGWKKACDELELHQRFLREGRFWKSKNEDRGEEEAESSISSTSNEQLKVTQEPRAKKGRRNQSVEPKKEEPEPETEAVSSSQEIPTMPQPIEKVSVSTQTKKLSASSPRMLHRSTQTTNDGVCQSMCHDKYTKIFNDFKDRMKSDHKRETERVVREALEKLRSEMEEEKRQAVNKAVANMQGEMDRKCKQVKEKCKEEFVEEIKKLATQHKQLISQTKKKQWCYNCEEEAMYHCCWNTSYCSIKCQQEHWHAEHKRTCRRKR
The assay can be described thus: co-IP; FLAG-HA-tagged ZMYND11 constructs expressed in HEK293T; Benzonase-treated nuclear lysates, 250 mM NaCl; anti-FLAG immunoprecipitation; western blot of endogenous partners; also with ethidium bromide (interactions with MLL1 complex members reduced). A general note: Immunoblotting shows a protein as a band on a membrane.

The target in assay [2] is T2, FLAG-HA-tagged ZMYND11, wild type, expressed in HEK293T cells (UniProt Q15326).
T2 sequence: T1 sequence with A291F, A294W
Described as above.

The target in assay [3] is T3, FLAG-HA-tagged ZMYND11 (endogenous, Zmynd11-FH knock-in mouse) (mouse (endogenous in brain tissue)) (UniProt Q8R5C8).
T3 sequence: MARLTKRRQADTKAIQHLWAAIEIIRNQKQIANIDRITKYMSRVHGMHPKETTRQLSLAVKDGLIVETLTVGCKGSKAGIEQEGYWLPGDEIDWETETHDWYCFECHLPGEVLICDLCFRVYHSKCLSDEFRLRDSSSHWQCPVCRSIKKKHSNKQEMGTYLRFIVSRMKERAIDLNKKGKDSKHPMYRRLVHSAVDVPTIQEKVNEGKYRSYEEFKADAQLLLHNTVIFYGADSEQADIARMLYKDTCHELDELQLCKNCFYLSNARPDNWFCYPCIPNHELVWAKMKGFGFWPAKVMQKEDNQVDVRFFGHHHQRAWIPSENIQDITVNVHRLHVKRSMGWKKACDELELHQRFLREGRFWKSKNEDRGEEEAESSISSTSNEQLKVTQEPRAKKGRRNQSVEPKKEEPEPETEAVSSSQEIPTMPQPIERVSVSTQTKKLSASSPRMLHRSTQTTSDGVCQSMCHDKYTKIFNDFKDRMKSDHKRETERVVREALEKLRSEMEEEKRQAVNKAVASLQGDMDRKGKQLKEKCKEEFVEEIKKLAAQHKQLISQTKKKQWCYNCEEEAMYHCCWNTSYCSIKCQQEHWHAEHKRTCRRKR
Description: co-IP; anti-FLAG immunoprecipitation from nuclear lysates of brain tissue of Zmynd11^FH/FH and wild-type littermates; western blot.

Assay [4] addresses T2, FLAG-HA-tagged ZMYND11, wild type, expressed in HEK293T cells. Description: co-IP; FLAG-HA-tagged ZMYND11 constructs expressed in HEK293T; Benzonase-treated nuclear lysates, 250 mM NaCl; anti-FLAG immunoprecipitation; western blot of endogenous partners; also with ethidium bromide (interactions with MLL1 complex members reduced). This is another data set of the same source.

Where a chain is given by its changes, count along the chain named. Where two headings read alike, the source gives them in different places. No constants are given. Whether binding was seen depends on the method and setting. In cells and extracts the contact can be indirect. Some results given as binding are weak or reduced against the parent protein; the word gives no strength. Where a sequence is shown, tags or fusion partners need not be part of it.

In the case of “KMT2A (MLL1), endogenous in HEK293T cells (from UniProt Q03164 1-3969)”, the binding result in assay [1] and in assay [2] was “binds” each time. Consider “KMT2B, endogenous in HEK293T cells (from UniProt Q9UMN6 1-2715)”, for which the binding entry in assay [2] is on record as “binds weakly”. On the same count and under the same terms, then “TBP, endogenous in HEK293T cells (from UniProt P20226 1-339)”, with “no binding”; and “RBBP5, endogenous in HEK293T cells (from UniProt Q15291 1-538)”, with “binds”. As for “KMT2A (MLL1), mouse brain (from UniProt P55200 1-3966)”, in assay [3], the binding result is “binds”.

B1: MENIN, endogenous in HEK293T cells (protein, UniProt O00255 1-610)
chain: MGLKAAQKTLFPLRSIDDVVRLFAAELGREEPDLVLLSLVLGFVEHFLAVNRVIPTNVPELTFQPSPAPDPPGGLTYFPVADLSIIAALYARFTAQIRGAVDLSLYPREGGVSSRELVKKVSDVIWNSLSRSYFKDRAHIQSLFSFITGTKLDSSGVAFAVVGACQALGLRDVHLALSEDHAWVVFGPNGEQTAEVTWHGKGNEDRRGQTVNAGVAERSWLYLKGSYMRCDRKMEVAFMVCAINPSIDLHTDSLELLQLQQKLLWLLYDLGHLERYPMALGNLADLEELEPTPGRPDPLTLYHKGIASAKTYYRDEHIYPYMYLAGYHCRNRNVREALQAWADTATVIQDYNYCREDEEIYKEFFEVANDVIPNLLKEAASLLEAGEERPGEQSQGTQSQGSALQDPECFAHLLRFYDGICKWEEGSPTPVLHVGWATFLVQSLGRFEGQVRQKVRIVSREAEAAEAEEPWGEEAREGRRRGPRRESKPEEPPPPKKPALDKGLGTGQGAVSGPPRKPPGTVAGTARGPEGGSTAQVPAPTASPPPEGPVLTFQSEKMKGMKELLVATKINSSAIKLQLTAQSQVQMKKQKVSTPSDYTLSFLKRQRKGL
Consider B1, for which the binding entry in assay [4] is reported as “binds”.
